Measurements as given in the supplement of paper PMC3334620.
In all, about 33,000 sequences were measured (“E-score (-0.5 to 0.5)”: median about -0.036, highest 2% from about 0.37 on). Some of the results follow.

target: T1, Yer064c (UniProt P40041); experiment: PBM E-score (8-mer binding enrichment) (E-score (-0.5 to 0.5)); higher = stronger / more preferred TF binding; most listed sequences are background and not binding sites; details: protein concentration: 200 nM; construct: GST-full length
T1 sequence: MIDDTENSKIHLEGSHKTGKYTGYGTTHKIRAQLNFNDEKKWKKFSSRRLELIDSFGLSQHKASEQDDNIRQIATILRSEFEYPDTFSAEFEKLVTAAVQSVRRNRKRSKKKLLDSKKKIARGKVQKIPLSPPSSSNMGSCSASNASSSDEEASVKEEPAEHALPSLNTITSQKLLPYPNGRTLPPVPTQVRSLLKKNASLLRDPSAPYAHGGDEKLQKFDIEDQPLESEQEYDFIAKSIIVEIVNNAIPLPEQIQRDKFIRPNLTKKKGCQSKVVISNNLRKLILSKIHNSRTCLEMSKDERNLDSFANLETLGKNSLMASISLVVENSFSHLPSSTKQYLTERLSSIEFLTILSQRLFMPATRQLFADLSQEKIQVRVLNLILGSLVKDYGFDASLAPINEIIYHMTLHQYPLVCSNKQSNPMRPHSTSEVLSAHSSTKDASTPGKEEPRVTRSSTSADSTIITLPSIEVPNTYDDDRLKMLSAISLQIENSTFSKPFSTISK
In short: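 Each ungapped eight-base word and its reverse complement, pooled, received an E-score from the Universal PBM Analysis Suite. Underlying scans, normalised with masliner, recorded fluorescent anti-GST bound to GST-tagged yeast transcription factors. These were applied at about 100-200 nM to universal all-10-mer Agilent arrays double-stranded by primer extension.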

First: ACTCTAAT
Second: GGGATTGA
The “PBM E-score” value of the first is higher: 0.248 for the first, -0.0351 for the second.

First: GGGCCCAA
Second: CACGTGTC
The “PBM E-score” value of the first is lower: -0.0621 for the first, 0.106 for the second.

Compared with CGGGGGGC, GTGCCAGA is higher in “PBM E-score” value: -0.258 for the first, -0.233 for the second.

Going from GGTATGCA to CGGTATAC, the “PBM E-score” value rises from -0.152 to -0.119.

Compared with AGAGGCCT, ATCGATGG is higher in “PBM E-score” value: -0.281 for the first, 0.163 for the second.

First: AAGGTTGC
Second: CAGTATGC
The “PBM E-score” value of the first is lower: -0.377 for the first, -0.0854 for the second.

Going from TATCTCGA to AGTGTAAA, the “PBM E-score” value rises from 0.0149 to 0.141.

Going from CGCTTGGA to GCCTCACC, the “PBM E-score” value falls from -0.136 to -0.208.

Compared with GGCTCGAC, GGCGTGTA is lower in “PBM E-score” value: 0.0352 for the first, -0.0577 for the second.

Going from ATCGTAAA to GCAACGCA, the “PBM E-score” value falls from 0.0659 to -0.188.

First: CTGGGTGA
Second: CGGTGTCC
The “PBM E-score” value of the first is higher: 0.232 for the first, -0.26 for the second.

Going from TGCCCTAA to AAGATAAC, the “PBM E-score” value rises from -0.179 to 0.00791.

Compared with ACTTTTTA, GCAGCGCC is lower in “PBM E-score” value: 0.199 for the first, -0.235 for the second.

Compared with ACGTAGCT, GCATAAAC is lower in “PBM E-score” value: -0.0184 for the first, -0.0588 for the second.

Compared with ATAGCTCA, AACATAGT is higher in “PBM E-score” value: -0.158 for the first, 0.131 for the second.

Going from ATCCTGTC to CGGGCCAA, the “PBM E-score” value falls from -0.0425 to -0.273.

Compared with CACTAAGA, TCAGACGA is higher in “PBM E-score” value: 0.119 for the first, 0.121 for the second.

Going from AGCTGATA to AAAAAGAC, the “PBM E-score” value rises from -0.149 to 0.0429.

Compared with AAGAGGAC, CACATCAC is lower in “PBM E-score” value: -0.0869 for the first, -0.106 for the second.

Compared with CTAAGTAC, AAGAGCGG is lower in “PBM E-score” value: 0.118 for the first, -0.214 for the second.

Compared with AGAGCAAT, TCACCCGA is higher in “PBM E-score” value: -0.141 for the first, 0.224 for the second.

Going from CACCTTTC to ATATTTAA, the “PBM E-score” value rises from -0.216 to 0.183.

Going from GACATTGC to CGGTACTC, the “PBM E-score” value rises from -0.103 to 0.151.

Going from ATGGTCCC to TACCATCA, the “PBM E-score” value rises from -0.116 to -0.102.

Going from ATAATAAA to AGGGGACC, the “PBM E-score” value falls from 0.137 to -0.131.

Going from CGCTTTGA to ACTAGTCC, the “PBM E-score” value rises from -0.117 to 0.164.

Going from CTAATACC to ATTAGTTG, the “PBM E-score” value rises from -0.118 to 0.118.

Compared with GCCTACTA, AACTCGCG is lower in “PBM E-score” value: 0.0543 for the first, 0.0438 for the second.

First: GGGTAAGA
Second: GCGCAAGC
The “PBM E-score” value of the first is higher: 0.172 for the first, -0.136 for the second.

Compared with ACACCAGC, ACGCTTAA is higher in “PBM E-score” value: -0.359 for the first, 0.0429 for the second.

First: TAGACTCA
Second: ACTCGGTC
The “PBM E-score” value of the first is higher: 0.413 for the first, 0.025 for the second.

Compared with CACAGCAA, ACTGCTAT is lower in “PBM E-score” value: -0.00016 for the first, -0.0888 for the second.

First: GTCCCCGA
Second: CGACTCAA
The “PBM E-score” value of the first is lower: -0.0658 for the first, 0.474 for the second.

Compared with CGACGTAA, ACCGGTAT is lower in “PBM E-score” value: 0.133 for the first, -0.251 for the second.

Going from AAGGTGGA to AATGGCGC, the “PBM E-score” value falls from -0.112 to -0.349.

Going from CGGTAAAC to CGATTACA, the “PBM E-score” value rises from -0.072 to 0.101.

Compared with ATGCCAAA, ATCCTGAA is higher in “PBM E-score” value: -0.129 for the first, 0.0956 for the second.

Compared with AGACATCG, CCGATGGA is lower in “PBM E-score” value: 0.157 for the first, -0.18 for the second.

Compared with GAAGACAC, CGTTTAAA is lower in “PBM E-score” value: -0.023 for the first, -0.0591 for the second.

Going from AATGCACG to CAGTTTAC, the “PBM E-score” value rises from -0.0518 to -0.0498.

First: AGTTTAGC
Second: GACCTCGC
The “PBM E-score” value of the first is lower: -0.129 for the first, -0.121 for the second.

First: ATAACCAA
Second: CAAAATCC
The “PBM E-score” value of the first is lower: 0.0499 for the first, 0.087 for the second.

Going from AAGTCACG to ATAATCCC, the “PBM E-score” value falls from 0.433 to -0.227.

Going from AGCCACAA to GGATGTGA, the “PBM E-score” value rises from 0.0122 to 0.0342.

Compared with GCAACCGA, AAAAATCT is higher in “PBM E-score” value: -0.0636 for the first, 0.0566 for the second.

Going from TCTAAGCA to AATAGTGG, the “PBM E-score” value falls from 0.151 to -0.102.

Going from GGAATTCC to CGGTCGGC, the “PBM E-score” value rises from -0.395 to 0.0072.

First: AGAGTTAA
Second: GAACCCGC
The “PBM E-score” value of the first is higher: 0.036 for the first, -0.264 for the second.

Going from AACGAGGA to CGAAGTTC, the “PBM E-score” value falls from -0.0859 to -0.126.

Going from AACTTGCC to AACCCGTG, the “PBM E-score” value rises from -0.221 to -0.193.

Compared with GAACTCGA, CACCAATG is lower in “PBM E-score” value: -0.0489 for the first, -0.0793 for the second.

Going from AGAAAAGA to AGAGTCGG, the “PBM E-score” value rises from 0.101 to 0.326.

Compared with TCTACGCA, GGTCTTTA is higher in “PBM E-score” value: -0.00215 for the first, 0.0323 for the second.

Going from ATGCGAAC to ATCGTTAG, the “PBM E-score” value rises from -0.0799 to 0.0777.

Compared with AATCGAGA, CATTTACG is lower in “PBM E-score” value: 0.0741 for the first, -0.047 for the second.
